Source: PMC6018636, “Mutually exclusive acetylation and ubiquitylation of the splicing factor SRSF5 control tumor growth” (Nature Communications, 2018)
Positions count from the first letter of the chain named. Results are given in words; binding and its absence hold for the method and conditions named. Binding seen in cells or lysates may run through a third protein. Some results given as binding are weak or reduced against the parent protein; the word gives no strength. For part of these data: Sequences can lack the tags named with a protein. Blank lines part the entries; values can stand above or below the molecule they belong to.

Sequences of proteins named here, by UniProt entry; tags and fusion partners are left off. A change or cut given only in a name is not applied to a line headed by its entry. A line that says so, or that is headed by a name, gives the form on record, which may keep a tag or linker.
UniProt Q13547: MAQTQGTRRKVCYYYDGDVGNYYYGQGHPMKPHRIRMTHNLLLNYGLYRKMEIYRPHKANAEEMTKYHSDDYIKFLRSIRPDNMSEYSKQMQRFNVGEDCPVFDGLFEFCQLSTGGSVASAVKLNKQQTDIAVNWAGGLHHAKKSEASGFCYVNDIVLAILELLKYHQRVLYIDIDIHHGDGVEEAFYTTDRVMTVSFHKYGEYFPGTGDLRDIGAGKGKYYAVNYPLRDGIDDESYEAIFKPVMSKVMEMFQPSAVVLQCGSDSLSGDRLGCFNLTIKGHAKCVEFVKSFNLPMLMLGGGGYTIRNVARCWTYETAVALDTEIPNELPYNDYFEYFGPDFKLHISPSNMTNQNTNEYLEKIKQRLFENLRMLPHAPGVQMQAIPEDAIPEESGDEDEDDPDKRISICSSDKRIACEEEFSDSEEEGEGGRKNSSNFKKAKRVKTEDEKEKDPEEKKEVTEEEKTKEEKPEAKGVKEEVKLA
UniProt Q13620: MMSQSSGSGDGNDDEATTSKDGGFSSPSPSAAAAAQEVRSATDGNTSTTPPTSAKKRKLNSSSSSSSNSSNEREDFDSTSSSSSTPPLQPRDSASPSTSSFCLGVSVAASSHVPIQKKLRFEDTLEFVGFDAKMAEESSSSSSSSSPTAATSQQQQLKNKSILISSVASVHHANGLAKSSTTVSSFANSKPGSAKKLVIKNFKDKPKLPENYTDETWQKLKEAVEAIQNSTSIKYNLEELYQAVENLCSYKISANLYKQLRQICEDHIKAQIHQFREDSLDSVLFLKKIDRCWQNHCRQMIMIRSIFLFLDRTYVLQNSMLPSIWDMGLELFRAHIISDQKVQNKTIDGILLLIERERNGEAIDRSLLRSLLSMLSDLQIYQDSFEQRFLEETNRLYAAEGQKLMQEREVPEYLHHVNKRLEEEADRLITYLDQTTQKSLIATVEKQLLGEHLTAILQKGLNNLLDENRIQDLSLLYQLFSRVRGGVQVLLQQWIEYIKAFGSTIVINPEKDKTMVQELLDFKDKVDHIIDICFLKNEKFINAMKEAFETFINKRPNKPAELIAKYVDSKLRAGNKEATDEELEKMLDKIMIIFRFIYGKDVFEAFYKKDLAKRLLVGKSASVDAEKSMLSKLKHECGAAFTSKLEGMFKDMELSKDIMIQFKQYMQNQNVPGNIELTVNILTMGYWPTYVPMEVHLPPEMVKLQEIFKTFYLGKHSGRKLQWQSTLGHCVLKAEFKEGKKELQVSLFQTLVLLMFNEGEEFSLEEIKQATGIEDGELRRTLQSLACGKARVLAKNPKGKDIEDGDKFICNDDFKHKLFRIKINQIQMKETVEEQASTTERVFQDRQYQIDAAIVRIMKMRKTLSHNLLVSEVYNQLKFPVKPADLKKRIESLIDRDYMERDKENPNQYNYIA
UniProt Q92993: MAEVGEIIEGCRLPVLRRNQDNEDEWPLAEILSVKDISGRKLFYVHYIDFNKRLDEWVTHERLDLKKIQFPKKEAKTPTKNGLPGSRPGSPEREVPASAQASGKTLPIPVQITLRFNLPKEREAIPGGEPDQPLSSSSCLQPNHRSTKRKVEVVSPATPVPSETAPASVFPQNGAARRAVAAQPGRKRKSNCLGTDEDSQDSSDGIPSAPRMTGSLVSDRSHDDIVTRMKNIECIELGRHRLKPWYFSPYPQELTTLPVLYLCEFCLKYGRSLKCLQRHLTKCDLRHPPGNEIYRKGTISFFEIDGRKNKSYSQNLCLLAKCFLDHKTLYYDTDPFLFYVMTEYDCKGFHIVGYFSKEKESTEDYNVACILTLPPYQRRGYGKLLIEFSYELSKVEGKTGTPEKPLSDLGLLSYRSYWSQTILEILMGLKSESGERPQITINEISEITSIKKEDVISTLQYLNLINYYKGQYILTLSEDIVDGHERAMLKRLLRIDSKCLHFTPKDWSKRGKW
UniProt P98175: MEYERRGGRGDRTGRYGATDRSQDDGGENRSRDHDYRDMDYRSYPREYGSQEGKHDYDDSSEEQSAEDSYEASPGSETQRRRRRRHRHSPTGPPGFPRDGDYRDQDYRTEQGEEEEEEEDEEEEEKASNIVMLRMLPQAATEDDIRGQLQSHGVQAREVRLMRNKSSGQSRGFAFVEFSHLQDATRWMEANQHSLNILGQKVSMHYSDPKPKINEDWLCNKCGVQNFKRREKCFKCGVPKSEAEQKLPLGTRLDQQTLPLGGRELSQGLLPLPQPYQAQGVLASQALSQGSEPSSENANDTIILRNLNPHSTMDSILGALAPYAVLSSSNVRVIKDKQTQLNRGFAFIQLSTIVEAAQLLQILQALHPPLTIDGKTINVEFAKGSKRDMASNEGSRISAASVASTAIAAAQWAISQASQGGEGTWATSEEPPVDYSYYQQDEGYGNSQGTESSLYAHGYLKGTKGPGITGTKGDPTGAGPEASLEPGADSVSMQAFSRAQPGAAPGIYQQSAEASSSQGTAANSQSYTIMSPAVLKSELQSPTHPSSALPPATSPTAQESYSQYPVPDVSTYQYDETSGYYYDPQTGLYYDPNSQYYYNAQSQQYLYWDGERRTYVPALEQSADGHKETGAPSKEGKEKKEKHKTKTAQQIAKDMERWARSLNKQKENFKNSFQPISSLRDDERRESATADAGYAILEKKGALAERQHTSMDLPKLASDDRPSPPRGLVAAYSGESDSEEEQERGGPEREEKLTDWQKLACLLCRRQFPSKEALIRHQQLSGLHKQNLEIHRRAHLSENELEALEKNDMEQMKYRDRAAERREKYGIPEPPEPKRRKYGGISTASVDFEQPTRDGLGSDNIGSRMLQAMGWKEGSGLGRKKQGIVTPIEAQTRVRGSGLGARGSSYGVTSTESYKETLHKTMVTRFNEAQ
UniProt Q9HCE7: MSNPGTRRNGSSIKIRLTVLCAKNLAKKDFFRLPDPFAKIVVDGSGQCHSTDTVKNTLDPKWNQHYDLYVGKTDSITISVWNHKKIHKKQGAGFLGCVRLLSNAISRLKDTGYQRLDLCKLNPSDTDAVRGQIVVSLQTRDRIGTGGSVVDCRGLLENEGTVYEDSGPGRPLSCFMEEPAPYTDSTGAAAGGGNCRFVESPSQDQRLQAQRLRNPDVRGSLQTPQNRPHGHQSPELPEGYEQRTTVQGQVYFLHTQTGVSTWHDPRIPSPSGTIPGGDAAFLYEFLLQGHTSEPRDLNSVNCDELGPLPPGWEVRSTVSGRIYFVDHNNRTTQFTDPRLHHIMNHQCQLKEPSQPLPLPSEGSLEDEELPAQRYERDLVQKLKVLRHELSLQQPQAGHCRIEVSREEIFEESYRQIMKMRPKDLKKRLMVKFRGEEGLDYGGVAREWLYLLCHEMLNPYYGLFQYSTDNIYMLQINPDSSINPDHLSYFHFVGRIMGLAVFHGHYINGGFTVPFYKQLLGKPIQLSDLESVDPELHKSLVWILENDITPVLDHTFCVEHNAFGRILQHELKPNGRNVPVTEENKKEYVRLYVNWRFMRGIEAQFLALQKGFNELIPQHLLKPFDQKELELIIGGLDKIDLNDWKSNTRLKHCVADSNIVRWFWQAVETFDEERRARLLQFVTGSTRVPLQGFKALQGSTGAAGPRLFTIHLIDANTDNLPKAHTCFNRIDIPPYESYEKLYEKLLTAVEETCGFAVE
Smurf1 (transfected, HEK293T, Fig. 7f) (Q9HCE7-2, form named): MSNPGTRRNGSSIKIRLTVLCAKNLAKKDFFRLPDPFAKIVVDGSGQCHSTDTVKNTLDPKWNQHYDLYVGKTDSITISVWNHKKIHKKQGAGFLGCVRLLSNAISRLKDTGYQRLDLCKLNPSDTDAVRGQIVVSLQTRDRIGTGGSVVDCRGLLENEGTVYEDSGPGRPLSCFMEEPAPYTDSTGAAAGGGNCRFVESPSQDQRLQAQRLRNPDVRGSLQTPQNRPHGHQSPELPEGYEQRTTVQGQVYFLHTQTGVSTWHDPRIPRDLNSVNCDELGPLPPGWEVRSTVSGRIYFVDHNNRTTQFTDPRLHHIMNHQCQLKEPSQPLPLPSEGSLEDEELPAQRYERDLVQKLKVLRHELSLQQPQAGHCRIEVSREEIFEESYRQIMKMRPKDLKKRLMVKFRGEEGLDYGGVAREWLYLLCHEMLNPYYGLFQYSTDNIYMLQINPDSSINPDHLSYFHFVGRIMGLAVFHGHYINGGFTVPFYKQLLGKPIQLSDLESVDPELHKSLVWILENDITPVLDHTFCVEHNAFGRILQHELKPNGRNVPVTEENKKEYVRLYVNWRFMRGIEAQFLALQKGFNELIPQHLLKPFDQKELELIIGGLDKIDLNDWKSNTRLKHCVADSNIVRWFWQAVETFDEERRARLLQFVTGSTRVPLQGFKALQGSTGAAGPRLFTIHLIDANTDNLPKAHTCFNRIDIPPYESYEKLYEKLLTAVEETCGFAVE

What was measured:
[1] = target: T1, Flag-CCAR1L (long isoform of cell cycle and apoptosis regulator 1) (human) (UniProt Q8IX12); assay: co-IP; lysates of transfected A549 cells, immunoprecipitation with the indicated antibodies and immunoblotting; for Myc-SRSF5 with Flag-Tip60 the cells were at 2.5 or 25 mM glucose
T1 sequence: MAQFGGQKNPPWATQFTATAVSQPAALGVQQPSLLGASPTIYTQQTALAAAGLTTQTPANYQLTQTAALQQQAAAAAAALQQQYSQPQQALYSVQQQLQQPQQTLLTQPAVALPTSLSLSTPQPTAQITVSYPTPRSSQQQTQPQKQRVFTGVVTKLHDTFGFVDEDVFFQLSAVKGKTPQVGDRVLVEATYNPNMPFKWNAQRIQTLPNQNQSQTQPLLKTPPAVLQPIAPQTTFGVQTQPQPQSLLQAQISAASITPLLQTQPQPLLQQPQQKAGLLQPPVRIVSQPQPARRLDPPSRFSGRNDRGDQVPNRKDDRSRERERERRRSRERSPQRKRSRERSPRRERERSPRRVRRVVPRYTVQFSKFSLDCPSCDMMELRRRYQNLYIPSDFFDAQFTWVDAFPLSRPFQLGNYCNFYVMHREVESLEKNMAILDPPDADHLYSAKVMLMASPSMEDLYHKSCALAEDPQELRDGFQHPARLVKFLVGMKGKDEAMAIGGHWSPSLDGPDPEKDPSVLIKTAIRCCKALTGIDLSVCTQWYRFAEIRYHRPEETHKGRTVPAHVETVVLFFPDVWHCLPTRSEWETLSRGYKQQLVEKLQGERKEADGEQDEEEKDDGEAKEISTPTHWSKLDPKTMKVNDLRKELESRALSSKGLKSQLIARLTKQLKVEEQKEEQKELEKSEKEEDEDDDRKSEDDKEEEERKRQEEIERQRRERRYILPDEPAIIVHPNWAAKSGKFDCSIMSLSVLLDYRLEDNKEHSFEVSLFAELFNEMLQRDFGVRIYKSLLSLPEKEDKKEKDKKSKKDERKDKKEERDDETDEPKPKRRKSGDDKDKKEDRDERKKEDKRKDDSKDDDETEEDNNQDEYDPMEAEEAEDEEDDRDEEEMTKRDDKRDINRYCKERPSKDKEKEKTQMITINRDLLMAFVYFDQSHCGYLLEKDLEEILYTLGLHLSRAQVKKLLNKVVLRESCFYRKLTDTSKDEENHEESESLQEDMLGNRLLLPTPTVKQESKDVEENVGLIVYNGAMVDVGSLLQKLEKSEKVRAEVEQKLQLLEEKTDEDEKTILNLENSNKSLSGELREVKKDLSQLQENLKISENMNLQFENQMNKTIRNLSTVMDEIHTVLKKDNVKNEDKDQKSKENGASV

Myc-SRSF5 (in A549) = target: T2, Myc-SRSF5 (in A549) (UniProt Q13243); assay: as above
T2 sequence: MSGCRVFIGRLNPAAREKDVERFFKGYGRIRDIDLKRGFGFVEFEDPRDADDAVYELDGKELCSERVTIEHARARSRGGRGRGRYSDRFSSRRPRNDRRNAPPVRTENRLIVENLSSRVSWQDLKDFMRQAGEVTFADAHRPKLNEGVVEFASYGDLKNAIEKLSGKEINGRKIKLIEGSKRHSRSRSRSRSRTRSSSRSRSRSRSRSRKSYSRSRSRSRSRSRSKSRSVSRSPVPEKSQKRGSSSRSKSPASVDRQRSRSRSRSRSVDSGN

[2] = target: T3, SRSF5 (endogenous) (human (endogenous in A549)) (UniProt Q13243); assay: co-IP; endogenous proteins, A549 cells at the indicated glucose concentrations (cells of Fig. 8h not named); immunoprecipitation and immunoblotting
T3 sequence: T2 sequence

[3] = target: T4, SRSF5 K125R (transfected, HEK293T) (UniProt Q13243); assay: co-IP; lysates of transfected HEK293T cells, IP-western; Fig. 7f with or without Tip60 knock-down; Fig. 8i at different glucose concentrations
T4 sequence: T2 sequence with K125R

[4] = target: T5, SRSF5 wild type (transfected, HEK293T, Fig. 7f) (UniProt Q13243); assay: as above
T5 sequence: T2 sequence

[5] = target: HDAC1 (endogenous) (human (endogenous in A549)) (UniProt Q13547); assay: co-IP; endogenous proteins, A549 cells at the indicated glucose concentrations (cells of Fig. 8h not named); immunoprecipitation and immunoblotting
HA-HDAC1 = HA-HDAC1 (UniProt Q13547); assay: co-IP; lysates of transfected HEK293T cells, IP-western; Fig. 7f with or without Tip60 knock-down; Fig. 8i at different glucose concentrations

binding [1]: no binding
Molecule: Cullin 4B (from UniProt Q13620 1-913)

binding (Myc-SRSF5 (in A549)): binds
Molecule: Flag-Tip60 (from UniProt Q92993 1-513) (enzyme)

binding [1]: binds
Molecule: RBM10 (transfected) (from UniProt P98175 1-930)

binding [2]: binds
Molecule: Smurf1 (endogenous) (from UniProt Q9HCE7 1-757) (enzyme)

binding [3]: binds | binding [4]: binds
Molecule: Smurf1 (transfected, HEK293T, Fig. 7f) (from UniProt Q9HCE7-2 1-731) (enzyme)

binding [2]: binds
Molecule: Tip60 (endogenous) (from UniProt Q92993 1-513) (enzyme)

binding [1]: no binding
Molecule: hnRNPK (from UniProt P61978 1-463)

binding [1]: binds
Molecule: p53 (from UniProt P04637 1-393)

binding [5]: binds
B1: SRSF5 (endogenous) (protein, UniProt Q13243 1-272)
chain: T2 sequence

binding (HA-HDAC1): binds
B2: Flag-SRSF5 (in HEK293T) (protein, UniProt Q13243 1-272)
chain: T2 sequence

binding [1]: binds
B3: GSDMA (transfected) (protein, UniProt Q96QA5 1-445)
chain: MTMFENVTRALARQLNPRGDLTPLDSLIDFKRFHPFCLVLRKRKSTLFWGARYVRTDYTLLDVLEPGSSPSDPTDTGNFGFKNMLDTRVEGDVDVPKTVKVKGTAGLSQNSTLEVQTLSVAPKALETVQERKLAADHPFLKEMQDQGENLYVVMEVVETVQEVTLERAGKAEACFSLPFFAPLGLQGSINHKEAVTIPKGCVLAFRVRQLMVKGKDEWDIPHICNDNMQTFPPGEKSGEEKVILIQASDVGDVHEGFRTLKEEVQRETQQVEKLSRVGQSSLLSSLSKLLGKKKELQDLELALEGALDKGHEVTLEALPKDVLLSKEAVGAILYFVGALTELSEAQQKLLVKSMEKKILPVQLKLVESTMEQNFLLDKEGVFPLQPELLSSLGDEELTLTEALVGLSGLEVQRSGPQYMWDPDTLPRLCALYAGLSLLQQLTKAS
